Assay [1] has as its target Flag-TAZ (full-length) (human) (UniProt Q9GZV5). Description: co-IP; Myc-USP7 (full-length or truncations) and Flag-TAZ co-expressed in HEK293T; lysates precipitated with anti-Flag antibody, immunoblot with anti-Myc. (In western blotting, separated proteins are transferred to a membrane and probed.)
In assay [2] the target is Myc-USP7-WT (full-length) (human) (UniProt Q93009). Description: co-IP; Flag-TAZ (full-length or truncations) and Myc-USP7 co-expressed in HEK293T; lysates precipitated with anti-Myc antibody, immunoblot with anti-Flag.
Assay [3] deals with TEAD4, endogenous (human (endogenous in Cal27)) (UniProt Q15561). Kind of assay: co-IP; Cal27 cells transfected with Myc-USP7^WT or Myc-USP7^C223S for 48 h; whole cell lysates precipitated with anti-TEAD4 antibody, immunoblot with anti-TAZ.
Assay [4] deals with ubiquitin-specific protease 7 (USP7), endogenous (human (endogenous in Cal27)) (UniProt Q93009). Description: co-IP; endogenous proteins; Cal27 cell lysates precipitated with anti-TAZ or anti-USP7 antibody and Protein A/G Plus Agarose overnight at 4 °C, immunoblot with anti-TAZ/anti-USP7.
Assay [5] concerns the target Transcriptional coactivator with PDZ-binding motif (TAZ), endogenous (human (endogenous in Cal27)) (UniProt Q9GZV5). The description is as above.

Chains of the proteins cited; added tags and fusions are not shown. Lines headed by an entry give the natural chain unless they say otherwise; changes in a name come on top.
UniProt Q9GZV5: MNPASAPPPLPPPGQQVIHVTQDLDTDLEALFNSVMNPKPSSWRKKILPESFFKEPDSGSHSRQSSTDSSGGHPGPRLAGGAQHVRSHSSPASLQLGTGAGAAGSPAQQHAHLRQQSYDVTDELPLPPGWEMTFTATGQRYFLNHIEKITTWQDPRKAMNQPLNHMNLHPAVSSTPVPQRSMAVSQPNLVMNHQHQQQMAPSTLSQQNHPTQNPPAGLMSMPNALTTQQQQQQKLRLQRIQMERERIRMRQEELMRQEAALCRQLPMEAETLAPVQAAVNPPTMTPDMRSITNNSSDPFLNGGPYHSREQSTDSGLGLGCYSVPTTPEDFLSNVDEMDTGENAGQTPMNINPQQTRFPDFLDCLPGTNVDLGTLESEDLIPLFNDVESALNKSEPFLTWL
UniProt Q93009: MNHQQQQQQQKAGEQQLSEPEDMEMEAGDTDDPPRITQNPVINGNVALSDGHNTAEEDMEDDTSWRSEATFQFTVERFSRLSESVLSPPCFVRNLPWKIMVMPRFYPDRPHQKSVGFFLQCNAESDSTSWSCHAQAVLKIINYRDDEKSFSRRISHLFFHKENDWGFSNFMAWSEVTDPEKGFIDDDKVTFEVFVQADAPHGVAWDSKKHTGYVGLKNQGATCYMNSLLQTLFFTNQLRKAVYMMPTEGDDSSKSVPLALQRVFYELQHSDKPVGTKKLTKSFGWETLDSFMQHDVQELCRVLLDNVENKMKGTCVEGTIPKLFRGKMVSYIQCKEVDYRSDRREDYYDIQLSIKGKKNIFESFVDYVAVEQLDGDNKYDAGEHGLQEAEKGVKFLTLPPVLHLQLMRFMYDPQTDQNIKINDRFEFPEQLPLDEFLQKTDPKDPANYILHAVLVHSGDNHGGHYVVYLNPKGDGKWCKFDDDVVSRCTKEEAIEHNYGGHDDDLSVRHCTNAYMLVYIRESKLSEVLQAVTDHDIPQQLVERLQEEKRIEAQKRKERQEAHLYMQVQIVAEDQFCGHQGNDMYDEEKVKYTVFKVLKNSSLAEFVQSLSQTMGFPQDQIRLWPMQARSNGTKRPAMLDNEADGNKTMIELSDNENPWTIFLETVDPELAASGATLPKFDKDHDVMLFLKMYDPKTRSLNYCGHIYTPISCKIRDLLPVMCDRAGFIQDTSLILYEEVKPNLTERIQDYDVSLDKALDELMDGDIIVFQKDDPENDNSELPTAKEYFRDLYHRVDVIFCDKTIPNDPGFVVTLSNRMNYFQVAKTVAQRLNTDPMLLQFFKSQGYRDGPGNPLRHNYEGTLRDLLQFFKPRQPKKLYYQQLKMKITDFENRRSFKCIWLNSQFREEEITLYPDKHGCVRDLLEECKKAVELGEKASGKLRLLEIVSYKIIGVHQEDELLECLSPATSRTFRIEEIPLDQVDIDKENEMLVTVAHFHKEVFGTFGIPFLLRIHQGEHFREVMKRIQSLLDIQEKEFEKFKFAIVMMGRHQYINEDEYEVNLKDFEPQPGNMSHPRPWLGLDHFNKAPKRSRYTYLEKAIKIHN
UniProt Q15561: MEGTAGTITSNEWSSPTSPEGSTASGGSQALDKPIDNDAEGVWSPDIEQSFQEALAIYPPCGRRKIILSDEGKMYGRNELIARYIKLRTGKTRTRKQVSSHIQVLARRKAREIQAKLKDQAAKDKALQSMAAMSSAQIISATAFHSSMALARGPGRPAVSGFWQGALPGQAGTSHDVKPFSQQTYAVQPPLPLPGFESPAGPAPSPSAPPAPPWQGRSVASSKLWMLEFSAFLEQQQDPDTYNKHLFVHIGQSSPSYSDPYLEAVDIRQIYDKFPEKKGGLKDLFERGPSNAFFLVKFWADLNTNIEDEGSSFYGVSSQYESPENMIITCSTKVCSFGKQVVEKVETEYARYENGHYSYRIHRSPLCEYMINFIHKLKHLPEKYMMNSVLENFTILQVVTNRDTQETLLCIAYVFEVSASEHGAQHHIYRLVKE

No constants are given. Whether binding was seen depends on the method and setting. Binding seen in cells or lysates may run through a third protein. Some results given as binding are weak or reduced against the parent protein; the word gives no strength.

For the substance “Myc-USP7 (1-208aa) (from UniProt Q93009 1-208) (domain or fragment)”, the binding entry in assay [1] is “binds”.

Regarding “Flag-TAZ (270-400aa) (from UniProt Q9GZV5 270-400) (domain or fragment)”, the binding result in assay [2] is “binds”.

Turning to “Flag-TAZ (125-270aa) (from UniProt Q9GZV5 125-270) (domain or fragment)”, the binding entry in assay [2] is “binds”.

“Transcriptional coactivator with PDZ-binding motif (TAZ), endogenous (from UniProt Q9GZV5 1-400)”: the binding entry in assay [3] and in assay [4] was “binds” each time.

As for “Flag-TAZ (1-125aa) (from UniProt Q9GZV5 1-125) (domain or fragment)”, the binding result in assay [2] is recorded as “binds”.

Take “Myc-USP7 (208-560aa) (from UniProt Q93009 208-560) (domain or fragment)”: the binding entry in assay [1] was “no binding”.

“Myc-USP7 (560-1102aa) (from UniProt Q93009 560-1102) (domain or fragment)”: the binding result in assay [1] is reported as “no binding”.

Consider “ubiquitin-specific protease 7 (USP7), endogenous (from UniProt Q93009 1-1102) (enzyme)”, for which the binding entry in assay [5] is “binds”.

Source of the values: article PMC9356134.
